This is an account of results in the RNAGym collection of RNA variant scans (doi:10.1073/pnas.2313332121).

B1: TPR 5TU (parent)
chain: GGAUCUUCUCGAUCUAACAAAAAAGACAAAUCUGCCACAAAGCUUGAGAGCAUCUUCGGAUGCAGAGGCGGCAGCCUUCGGUGGCGCGAUAGCGCCAACGUUCUCAACUAUGACACGCAAAACGCGUGCUCCGUUGAAUGGAGUUUAUCAUG

This sample is rich in variants without activity. A value given as a limit tells only on which side of the number the result lay.

Variants of B1 are the subject of this data set. In words: polymerase ribozyme fitness, log enrichment relative to wild type (log ratio); higher = more active; in vitro selection for triplet polymerase activity. In outline: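 PCR was used to build mutant libraries for each subunit of a heterodimeric triplet polymerase ribozyme, which were then transcribed. A single in vitro selection round, in triplicate, used a frozen incubation at −7 °C and recovered extended constructs by gel excision, streptavidin beads and RT-PCR. Fitness is the logarithm of genotype enrichment relative to wild-type enrichment, averaged over replicates with inverse-variance weights. The logarithm is base 2, and after Illumina sequencing only genotypes with ≥10 input reads and ≥1 read per output were kept.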
Turning to GGAUCUUCUCGAUCUCACACAAAAGACAAAUCUGCCACAAAGCUUGAGAGCAUCAUCGGAUGCAGAGGCGGCAACCUUCGGUGGCGCUAUAGUGCCAGCGUUCUCGACUAUGACACGCUAAACGCUUGCUCCGUUGAAUGGAGUUUAUCAUG, the “polymerase ribozyme fitness (log ratio)” value is at most -4.2.
As for GGAUCUUCUCGAUCUCACAAAAAAGUCAAAUCUGCCACAAAGCUUGAGAGCAUCUACGGAUGCAGCGGCGGCAGACUUCGGUGGUGCGAUUGCGCCAACGUUCUCAACUAAGACACGCAAAACGCGUGCUCCGUUGAUUGGAGUUUAUCAUG, the figure is at most -4.2.
On to GGAUCUUCUCGAUCUCACAAAAAGGACAAAUCUGCCACAGAGCUUGAGAGCAUCUUCGGAUGCAGAGGCGGCAGCCUUCGGUGGCGCGAUAGCGCCAACGUUCUCAACUAUGACACGUAAAACGCGUGCUCCGUUGAAUGGAGUUUAUCAUG, for which the “polymerase ribozyme fitness (log ratio)” value is at most -4.2.
As for GGAUCUUCUCGAUCUCACAAAAAAGACAGAUCUGCCACAAAGCUUGAGAGCAUCUUCGGAUGCAGAGGCGGCAGCCUUCGGUGGCGCGAUAGCGCCAACGUUCUCAACUAUGACACGCAAAGCGCGUGCUCCGUUGAAUGUAGUUUAUCAUG, the figure is at most -4.2; as for GGAUCUUCUCGAUCGAACAAAAAAGACAAAUCUGCCACAAAGCUUGAGAGCAUCUUCGGAAGCAGAGGCGGCAGCCUUCGGUGGCGCGAUAGCGCCAACGUUCUCACCUAUGAUACGCAAAACGCGUGCUCCGUUGAAUUGAGUUUAUCAUG, at most -4.2.
On to GGAUCUUCUCGAUCGAACAAAAAAGACAAAUCUGCCACAAAGCUUGAGAGCAUCAUCGGUUGCAGAGGCGGCAGCGUUCGGUGGCGCGAUAGCGCAAACGUUCUCAACUAUGACACGCAAAACGCGUGCUCCGUUGAAUGGAGUUUAUCAUG, for which the “polymerase ribozyme fitness (log ratio)” value is at most -4.2.
As for GGAUCUUCUCGAUCUCGCAAAAAAGACAAAUCUGCCACAAAGCUUGAGAGCAUCUUCGGAUGCAGAGGCGGCAGCGUUCGGUGGCGCGAUAGCGCAAACGUUCUCAGCUAUGACACGCAAAACGCGUGCUCCGUUGAAUGGAGUUUAUCAUG, the figure is at most -4.2; as for GGAUCUUCUCGAUCUCACAAAUAAGACAAAUCUGGCACAAAGCUUGAGAGCAUCUUCGGAUGCAGAGGCGGCAGCCUUCGGUGGCGCGCUAGCGCCAACCUUCUCAACUAUGACACGCAAAACGCGUGCUCCGUUGAAUGGAGUUUAUCAUG, at most -4.2; as for GGAUCUUCUCGAUCUCACAAAUAAGACAAAUCUGCCACAAAGCUUGAGAGCAUCUUCGUAUGCAGAGGCGGCAGGCUUCGGUGGCGCGAUAGCGCCAACGUUCUCAACUAUGACACGCAAAACGCGUGCUCCGUUGAAUGGAGUUUAUCAUG, at most -4.2.
Take GGAUCUUCUCGAUCGAACAAAAAAGACAAAUCUGCCACAAAGCUUGAGAGCAUCUUCGGAUGCAGAGGCGGCAGCCCUCUGUGGCCCGAUAGCGCCAACGUUCUCAACUAUGACACGCAAUACGCGAGCUCCGUUGAAUGGAUUUUAUCAUG: the “polymerase ribozyme fitness (log ratio)” value was at most -4.2.
As to GGAUCUUCUCGAUCUCCCAAAAAAGACAAAGCUGCCACAAAGCUUGAGACCAUCUUCGGAUGCAGAGGCGGCAGCCUUCGGUGGCGACAUAGCGGCAACGUUCUCAACUAUGACACGCAAAACGCGUGCUCCGUCGAAUGGAGUUUAUCAUG, the “polymerase ribozyme fitness (log ratio)” value was at most -4.2.
For GGAUCUUCUCGAUCUCACAAAAAAGACAGAUCUGCCACAAAGCUAGAGAGCAUCUUCGGAUGCAGAGGCGGCAGCCUUCGGUGGCGCGAUAGCGCGAACGUUCUUAACUAUGACAGGCUAAACGCGUGCUCUGUUGAAUGGAGUUUAUCAUG, the “polymerase ribozyme fitness (log ratio)” value was at most -4.2.
For GGAUCUUCUCGAUCUCACAAAAAAGGCAAAUCUGCCACAAAGCUUGAGAGCAUCUUCCGAUGCAGAGGCGGCAGCCUUCGGUGGCGCGAUACCGCCAACGUUCUCAACUAUGACACGCAAAACGCGUGCUCCGUUGAAUGGAGUUUAUCAUG, the “polymerase ribozyme fitness (log ratio)” value is at most -4.2.
As to GGAUCUUCUCGAUCUCACAAAUAAGACAAAUCUGCCACAAAGCUUGAGAGCAUCUUCGGAUGCAGACGCGGCAGCCUUCGGUGGCGCGAUAGCGCCAACGUUCUCAACUAUGACACGCAAAACGCGUGCUCCGUUGAAUGGAGUUUAUCAUG, the “polymerase ribozyme fitness (log ratio)” value is at most -4.2.
GGAUCUUCUCGAUCUCGCAAAAAAGAAAAAUCUGCCACAAAGCUUGGGAGCAUCUUCGGUUGCAGAGGCGGCAGCCUUCGGUGGCAGGAUAGCGCCAACGUUCUCAACUAUGACGCGCAAAACGCGUGCUCCGUUGAAUGGAGUUUAUCAUG: the “polymerase ribozyme fitness (log ratio)” value was at most -4.2.
With GGAUCUUCUCGAUCGAACAAAAAAGACAAAUCUGCCACAAAGCUUGAGAGCAACUUCGGCUGCAGAGGCGGCAGCCUUCGGUAGUGCGAUAGCGCCAACGUUCUCAACUAUGACACGCAAAACGCGUGCUCCGUUGAAUGGAGUUUAUCAUG, the “polymerase ribozyme fitness (log ratio)” value is -3.78.
In the case of GGAUCUUCUCGAUCUCUCAAAAAAGACAAAUCUGCCACAAAGCUUGCGAGCAACUUCGGAUGCAGAGGCGGCAGCCUUCGGUGGCGCGAUAGCGCCAACGGUCUCAACUAUGACACGCAAAACGCGUGCUCCGUUGAAUGGAGUUUAUCAUG, the “polymerase ribozyme fitness (log ratio)” value is at most -4.2.
Take GGAUCUUCUCGAUCUCACAAUAAAGACAAAUCUGCCACCAAGCAAGAGGGCAUCUUCGGAUGCAGAGGCGGCAGCCUUCGGUGACGCGAUAGCGCCAACGUUCUCAACUAUGACACGCAAAACGCUUGCUCCGUUGAAUGGAGUUUAUCAUG: the “polymerase ribozyme fitness (log ratio)” value was at most -4.2.
For GGAUCUUCUCGAUCGAACAAAAAAGACAAAGCUGCCACAUAGCUUGAGAGCAUCUUAGGAUGCAGAGGCGGCAGCCUUCGGUGGCGCGAUAGCGGCAACGUUCUCAACUAUGACACGCAAAACGUGUGCUCCGUUGAAUUGAGUUUAUCAUG, the “polymerase ribozyme fitness (log ratio)” value was at most -4.2.
